In one experiment the test system is HSkMC. Kind of experiment: cytotoxicity call (relative viability < 0.9). The conditions noted are these: 10 µM.
In the next experiment the test system is HepG2. Put plainly: cytotoxicity call (relative viability < 0.9). The conditions noted are these: 10 µM.
The next experiment deals with S. aureus RN4220. Kind of experiment: growth inhibition call (relative growth <= 0.2). Particulars: 50 µM.

The other results are listed elsewhere or left out.

For the compound `CC(=O)NC(CS)C(=O)O` (stereo unspecified), the cytotoxicity call in the experiment on HSkMC and with HepG2 was “inactive” each time. Besides, the growth inhibition call with S. aureus RN4220 is “inactive”.

Turning to `O=CN[C@H](Cc1ccccc1)C(=O)O`, the cytotoxicity call in the experiment on HSkMC and in the experiment on HepG2 was “inactive” throughout. The growth inhibition call in the experiment on S. aureus RN4220 is “inactive”.

For the compound `C[C@@H]1CN([C@H](C)CO)C(=O)c2cc(NS(=O)(=O)c3ccc(F)cc3)ccc2O[C@@H](C)CCCCO[C@H]1CN(C)Cc1ccc(C(F)(F)F)cc1`, the cytotoxicity call in the experiment with HSkMC and in the experiment on HepG2 was “inactive” each time. For the same compound, the growth inhibition call in the experiment with S. aureus RN4220 is “inactive”.

Consider `C[C@@H]1CN([C@H](C)CO)C(=O)c2cc(NS(=O)(=O)c3cn(C)cn3)ccc2O[C@@H](C)CCCCO[C@@H]1CN(C)Cc1ccc(C(F)(F)F)cc1`, for which the cytotoxicity call in the experiment on HSkMC and in the experiment with HepG2 was “inactive” in each case. Besides, the growth inhibition call with S. aureus RN4220 is “inactive”.

Turning to `COc1ccc(S(=O)(=O)Nc2ccc3c(c2)CC(=O)N([C@@H](C)CO)C[C@H](C)[C@@H](CN(C)S(=O)(=O)c2ccccc2)O3)cc1`, the cytotoxicity call in the experiment on HSkMC and in the experiment with HepG2 was “inactive” in each case. The growth inhibition call with S. aureus RN4220 is “inactive”.

For `O=C(CCCCCNC(=O)OCc1ccc(CO[C@@H]2C[C@H](c3csc4ccccc34)C=C(C(=O)N3CCN(Cc4ccccc4)CC3)O2)cc1)NO`, the cytotoxicity call in the experiment with HSkMC and in the experiment with HepG2 was “inactive” in each case. Besides, the growth inhibition call in the experiment with S. aureus RN4220 is “inactive”.

`COc1cccc(NC(=O)N(C)C[C@H]2OCc3ccccc3-c3c(n(C)c4ccccc34)C(=O)N([C@@H](C)CO)C[C@@H]2C)c1`: the cytotoxicity call in the experiment on HSkMC and with HepG2 was “inactive” each time. Further, in the experiment with S. aureus RN4220, the growth inhibition call was “inactive”.

Turning to `C=CCc1ccc(O)c(OC)c1`, the cytotoxicity call with HSkMC and with HepG2 was “inactive” in each case. The growth inhibition call in the experiment with S. aureus RN4220 was “active”.

Take `COCC(=O)Nc1ccc2c(c1)C(=O)N(C)C[C@@H](OC)[C@H](C)CN(Cc1ccccc1C(=O)O)[C@H](C)CO2`: the cytotoxicity call with HSkMC and in the experiment with HepG2 was “inactive” throughout. Besides, the growth inhibition call with S. aureus RN4220 was “inactive”.

With `C[C@@H]1CN([C@H](C)CO)C(=O)c2cc(NS(=O)(=O)c3ccc(F)cc3)ccc2O[C@@H]1CN(C)Cc1ccncc1`, the cytotoxicity call in the experiment with HSkMC and in the experiment with HepG2 was “inactive” each time. Besides, the growth inhibition call in the experiment with S. aureus RN4220 is “inactive”.

As for `CCC(=O)OC(OP(=O)(CCCCc1ccccc1)CC(=O)N1CC(C2CCCCC2)CC1C(=O)[O-])C(C)C.[Na+]` (stereo unspecified), the cytotoxicity call in the experiment with HSkMC and with HepG2 was “inactive” each time. Also, the growth inhibition call in the experiment with S. aureus RN4220 was “inactive”.

Take `C[C@H](CO)N1C[C@H](C)[C@H](CN(C)C(=O)Nc2cccc3ccccc23)OCCCC[C@H](C)Oc2ccc(NS(=O)(=O)c3ccc(Cl)cc3)cc2C1=O`: the cytotoxicity call with HSkMC and in the experiment with HepG2 was “inactive” each time. For the same compound, the growth inhibition call with S. aureus RN4220 is “inactive”.

For `C[C@@H]1CN([C@H](C)CO)C(=O)Cc2cc(NC(=O)Cc3ccccc3)ccc2O[C@H]1CN(C)C(=O)Nc1cccc2ccccc12`, the cytotoxicity call in the experiment with HSkMC and with HepG2 was “inactive” in each case. Also, the growth inhibition call in the experiment on S. aureus RN4220 was “inactive”.

As for `C[C@@H]1CN([C@@H](C)CO)C(=O)Cc2cc(NS(=O)(=O)c3cccs3)ccc2O[C@@H]1CN(C)S(=O)(=O)c1ccc(F)cc1`, the cytotoxicity call in the experiment with HSkMC and with HepG2 was “inactive” each time. The growth inhibition call in the experiment with S. aureus RN4220 was “inactive”.

Regarding `O=C(C[C@H]1C=C[C@H](NC(=O)Nc2ccc3c(c2)OCO3)[C@@H](CO)O1)NCCCN1CCOCC1`, the cytotoxicity call in the experiment on HSkMC and in the experiment with HepG2 was “inactive” throughout. In addition, the growth inhibition call with S. aureus RN4220 is “inactive”.

Consider `C[C@@H]1CN([C@H](C)CO)C(=O)c2cc(NC(=O)Nc3ccccc3)ccc2O[C@@H](C)CCCCO[C@H]1CN(C)C(=O)c1ccccc1`, for which the cytotoxicity call with HSkMC and with HepG2 was “inactive” each time. In addition, the growth inhibition call in the experiment with S. aureus RN4220 was “inactive”.

Consider `C[C@H]1CN([C@@H](C)CO)C(=O)c2cc(NC(=O)Nc3cccc4ccccc34)ccc2O[C@@H]1CN(C)Cc1ccc(C(=O)Nc2ccccc2N)cc1`, for which the cytotoxicity call with HSkMC and in the experiment with HepG2 was “inactive” throughout. The growth inhibition call in the experiment on S. aureus RN4220 is “inactive”.

Turning to `Cc1noc(C)c1S(=O)(=O)Nc1ccc2c(c1)C(=O)N([C@@H](C)CO)C[C@H](C)[C@H](CN(C)Cc1ccccc1)O2`, the cytotoxicity call with HSkMC and in the experiment with HepG2 was “inactive” throughout. In addition, the growth inhibition call in the experiment with S. aureus RN4220 is “inactive”.

Take `C[C@@H]1CCCCO[C@@H](CN(C)Cc2ccncc2)[C@@H](C)CN([C@@H](C)CO)C(=O)c2cc(NC(=O)CCC(F)(F)F)ccc2O1`: the cytotoxicity call in the experiment on HSkMC and in the experiment on HepG2 was “inactive” throughout. Further, the growth inhibition call in the experiment on S. aureus RN4220 was “inactive”.

As to `Cc1cc(C)n2nc(CCCO)nc2n1`, the cytotoxicity call with HSkMC and in the experiment with HepG2 was “inactive” in each case. In addition, the growth inhibition call in the experiment on S. aureus RN4220 is “inactive”.

Turning to `C[C@H](CO)N1C[C@H](C)[C@H](CN(C)C(=O)Nc2cccc(Cl)c2Cl)OCc2ccccc2-c2c(n(C)c3ccccc23)C1=O`, the cytotoxicity call in the experiment on HSkMC and in the experiment on HepG2 was “inactive” in each case. In the experiment with S. aureus RN4220, the growth inhibition call is “inactive”.

Regarding `COc1ccc(C#Cc2cnc3c(c2)C(=O)N([C@H](C)CO)C[C@H](C)[C@H](CN(C)C(=O)NC(C)C)O3)cc1OC`, the cytotoxicity call in the experiment on HSkMC and in the experiment on HepG2 was “inactive” in each case. Also, the growth inhibition call in the experiment on S. aureus RN4220 is “inactive”.

In the case of `CC(C)NC(=O)N(C)C[C@H]1OCCCC[C@@H](C)Oc2ccc(NC(=O)Nc3cccc4ccccc34)cc2C(=O)N([C@@H](C)CO)C[C@H]1C`, the cytotoxicity call in the experiment on HSkMC and with HepG2 was “inactive” in each case. Moreover, the growth inhibition call in the experiment with S. aureus RN4220 is “inactive”.

Take `C[C@H](NC(=O)N(C)C[C@H]1OCc2ccccc2-c2c(n(C)c3ccccc23)C(=O)N([C@H](C)CO)C[C@H]1C)c1ccccc1`: the cytotoxicity call in the experiment on HSkMC and with HepG2 was “inactive” throughout. Besides, the growth inhibition call in the experiment on S. aureus RN4220 was “inactive”.

For the compound `C[C@H](CO)N1C[C@H](C)[C@H](CN(C)S(=O)(=O)c2ccc(Oc3ccccc3)cc2)OCc2cn(nn2)CCCC1=O`, the cytotoxicity call in the experiment on HSkMC (human skeletal muscle cells) and in the experiment on HepG2 was “inactive” each time. Also, in the experiment on S. aureus RN4220, the growth inhibition call was “inactive”.

In the case of `COc1cccc(-c2ccc3c(c2)O[C@H](CN(C)C(=O)C2CC2)[C@@H](C)CN([C@H](C)CO)S3(=O)=O)c1`, the cytotoxicity call with HSkMC and with HepG2 was “inactive” throughout. Besides, in the experiment with S. aureus RN4220, the growth inhibition call was “inactive”.

Take `COc1ccc(S(=O)(=O)Nc2ccc3c(c2)CC(=O)N([C@H](C)CO)C[C@@H](C)[C@H](CN(C)S(=O)(=O)c2cccs2)O3)cc1`: the cytotoxicity call with HSkMC and with HepG2 was “inactive” in each case. In the experiment with S. aureus RN4220, the growth inhibition call was “inactive”.

Values taken from the antibiotic and cytotoxicity screens of Wong et al. (2023).
